# Data taken from the supplement of paper PMC4604168 (melanoma cell lines).
# The list shows a part of the results. Many values rest on one well or one pass, so single values are uncertain.
# How the values were obtained:
# Assay in all cases: cell count relative to DMSO control; melanoma cells; higher = more viable cells
# Conditions in all cases: library dose: standard library concentration; 72 h
# SkMel28 = tested on: SkMel28
# SkMel2 = tested on: SkMel2
# SkMel30 = tested on: SkMel30
# SkMel5 = tested on: SkMel5
# UACC257 = tested on: UACC257
# UACC62 = tested on: UACC62
# WM115 = tested on: WM115
# WM1716 = tested on: WM1716
# WM3526 = tested on: WM3526
# WM1745 = tested on: WM1745
# 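Further: cells treated in 1,536-well plates, then fixed and DAPI-stained, with nuclei counted from automated high-throughput microscope images.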
Structure (SMILES),cell count (SkMel28) [%],cell count (SkMel2) [%],cell count (SkMel30) [%],cell count (SkMel5) [%],cell count (UACC257) [%],cell count (UACC62) [%],cell count (WM115) [%],cell count (WM1716) [%],cell count (WM3526) [%],cell count (WM1745) [%]
"CC(C)C[C@H](NC(=O)[C@H](Cc1ccccc1)NC(=O)c1cnccn1)B(O)O [Bortezomib] + Oc1nc(-c2ccc(C(F)(F)F)cc2)nc2c1CSCC2 [XAV939] (first compound 0.005 µM, partner dose 10 µM)",68.7,88.7,97.3,68.2,83.3,75.7,82.5,20,62,
"Cn1c(=O)n(-c2ccc(C(C)(C)C#N)cc2)c2c3cc(-c4cnc5ccccc5c4)ccc3ncc21 + c1cc(-c2cnn3cc(-c4ccc(OCCN5CCCCC5)cc4)cnc23)ccn1 [Dorsomorphin] (first compound 0.02 µM, partner dose 2 µM)",31.2,50.2,65.6,48.9,75,57.5,51.3,64.2,59.4,
"COc1ccc(C2=N[C@@H](c3ccc(Cl)cc3)[C@@H](c3ccc(Cl)cc3)N2C(=O)N2CCNC(=O)C2)c(OC(C)C)c1 [Nutlin-3] + CC(C)CCN1c2nc(Nc3cc(F)c(O)c(F)c3)ncc2N(C)C(=O)C1C [BID1870] (first compound 0.5 µM, partner dose 1 µM)",46.7,76.4,80,65.1,71.4,72,98.8,74.4,70.8,
"Cc1cc(Nc2cc(N3CCN(C)CC3)nc(/C=C/c3ccccc3)n2)n[nH]1 + O=S(=O)(c1ccccc1)N(CC(F)(F)F)c1ccc(C(O)(C(F)(F)F)C(F)(F)F)cc1 [T0901317] (first compound 0.2 µM, partner dose 7 µM)",72.6,76.7,101,85.7,78.9,78.5,73.2,99.5,79.2,
"COc1ccc(C2=N[C@@H](c3ccc(Cl)cc3)[C@@H](c3ccc(Cl)cc3)N2C(=O)N2CCNC(=O)C2)c(OC(C)C)c1 [Nutlin-3] + Cn1cc(/C=C2\C(=O)Nc3cccnc32)c2ccccc21 [GW441756] (first compound 0.5 µM, partner dose 2 µM)",50.9,95.4,94.8,56.6,70.9,59.2,92.9,82.8,86.5,
"Cc1cn(-c2cc(NC(=O)c3ccc(C)c(Nc4nccc(-c5cccnc5)n4)c3)cc(C(F)(F)F)c2)cn1 [nilotinib] + CCN(CC)CCCCNc1ncc2cc(-c3cc(OC)cc(OC)c3)c(NC(=O)NC(C)(C)C)nc2n1 [PD173074] (first compound 1 µM, partner dose 0.5 µM)",72.1,98.2,79.2,56.5,94.3,88.1,87.8,116,76.3,
"Cn1c(=O)n(-c2ccc(C(C)(C)C#N)cc2)c2c3cc(-c4cnc5ccccc5c4)ccc3ncc21 + COc1ccc(COc2ccc(Cc3cnc(N)nc3N)cc2OC)cc1 [GW2580] (first compound 0.02 µM, partner dose 5 µM)",58.1,63.4,78.9,63.6,89.2,73.1,62.9,69.3,89,
"COc1ccc(C2=N[C@@H](c3ccc(Cl)cc3)[C@@H](c3ccc(Cl)cc3)N2C(=O)N2CCNC(=O)C2)c(OC(C)C)c1 [Nutlin-3] + C[C@]1(O)C[C@@H](c2nc(-c3ccc4ccc(-c5ccccc5)nc4c3)c3c(N)nccn32)C1 [OSI906] (first compound 0.5 µM, partner dose 2 µM)",53.3,74.4,79.8,62.3,82.7,58.2,95.9,79.4,71.3,56.4
"Cc1cc(Nc2cc(N3CCN(C)CC3)nc(/C=C/c3ccccc3)n2)n[nH]1 + Oc1cc(-c2nc(-c3ccccc3)[nH]c2-c2ccncc2)ccc1Cl [L779450] (first compound 0.2 µM, partner dose 1 µM)",35.8,17.7,80.8,37.7,80.9,57.4,41.3,60.9,37,
"CC(C)C[C@H](NC(=O)[C@H](Cc1ccccc1)NC(=O)c1cnccn1)B(O)O [Bortezomib] + Cn1cc(/C=C2\C(=O)Nc3cccnc32)c2ccccc21 [GW441756] (first compound 0.005 µM, partner dose 2 µM)",27,22.6,22.6,17.1,53.8,44.6,21.1,16.2,21,
"Cc1cc(Nc2cc(N3CCN(C)CC3)nc(/C=C/c3ccccc3)n2)n[nH]1 + COc1ccc(-c2ccc3c(N4CCOCC4)nc(N4C[C@@H](C)O[C@@H](C)C4)nc3n2)cc1CO [KU0063794] (first compound 0.2 µM, partner dose 0.1 µM)",51.9,68.9,61.2,51.5,87.1,72.7,60.5,75,60.3,
"CC(C)C[C@H](NC(=O)[C@H](Cc1ccccc1)NC(=O)c1cnccn1)B(O)O [Bortezomib] + COc1cc(N2CCC(N3CCN(C)CC3)CC2)ccc1Nc1ncc(Cl)c(Nc2ccccc2S(=O)(=O)C(C)C)n1 [NVP-TAE684] (first compound 0.005 µM, partner dose 0.4 µM)",45.2,38.8,40.1,31.4,73.1,78.4,33.2,19.9,24.3,
"CC(C)C[C@H](NC(=O)[C@H](Cc1ccccc1)NC(=O)c1cnccn1)B(O)O [Bortezomib] + COc1cc2ncnc(Nc3ccc(Oc4ccccc4)cc3)c2cc1OC [SrcI1] (first compound 0.005 µM, partner dose 10 µM)",38.1,21.2,30.8,29.1,80.5,44.2,38.3,19,27,
"CC(C)C[C@H](NC(=O)[C@H](Cc1ccccc1)NC(=O)c1cnccn1)B(O)O [Bortezomib] + Oc1cc(-c2nc(-c3ccccc3)[nH]c2-c2ccncc2)ccc1Cl [L779450] (first compound 0.005 µM, partner dose 1 µM)",35.3,43,39.3,36.5,89.1,41.8,24.2,16.5,31.1,
"Cc1cn(-c2cc(NC(=O)c3ccc(C)c(Nc4nccc(-c5cccnc5)n4)c3)cc(C(F)(F)F)c2)cn1 [nilotinib] + Oc1cc(-c2nc(-c3ccccc3)[nH]c2-c2ccncc2)ccc1Cl [L779450] (first compound 1 µM, partner dose 1 µM)",47.1,33.6,120,45.7,92.8,44.6,49.8,79.4,47.1,
"COc1ccc(C2=N[C@@H](c3ccc(Cl)cc3)[C@@H](c3ccc(Cl)cc3)N2C(=O)N2CCNC(=O)C2)c(OC(C)C)c1 [Nutlin-3] + COc1ccc(COc2ccc(Cc3cnc(N)nc3N)cc2OC)cc1 [GW2580] (first compound 0.5 µM, partner dose 5 µM)",54.9,93.1,96.1,47.8,65.2,70,76.9,77.4,89.3,
"Cc1cc(Nc2cc(N3CCN(C)CC3)nc(/C=C/c3ccccc3)n2)n[nH]1 + COc1ccc(COc2ccc(Cc3cnc(N)nc3N)cc2OC)cc1 [GW2580] (first compound 0.2 µM, partner dose 5 µM)",61,88.6,99.4,63,95.7,77.4,58.1,74.6,78.8,
"CC(C)C[C@H](NC(=O)[C@H](Cc1ccccc1)NC(=O)c1cnccn1)B(O)O [Bortezomib] + CC(C)CCN1c2nc(Nc3cc(F)c(O)c(F)c3)ncc2N(C)C(=O)C1C [BID1870] (first compound 0.005 µM, partner dose 1 µM)",28.2,49.5,32.5,32.2,78.8,71.3,29.7,20.7,21.4,
"Cc1cn(-c2cc(NC(=O)c3ccc(C)c(Nc4nccc(-c5cccnc5)n4)c3)cc(C(F)(F)F)c2)cn1 [nilotinib] + C=CCn1c(=O)c2cnc(Nc3ccc(N4CCN(C)CC4)cc3)nc2n1-c1cccc(C(C)(C)O)n1 [MK1775] (first compound 1 µM, partner dose 0.1 µM)",51.2,70.8,87.6,38.2,109,57.7,65.7,85.5,65.2,33.9
"COc1ccc(C2=N[C@@H](c3ccc(Cl)cc3)[C@@H](c3ccc(Cl)cc3)N2C(=O)N2CCNC(=O)C2)c(OC(C)C)c1 [Nutlin-3] + COC(=O)c1sccc1S(=O)(=O)Nc1ccc(Nc2ccccc2)cc1OC [GSK0660] (first compound 0.5 µM, partner dose 5 µM)",47.9,86.4,86.6,70.6,76.9,82.2,70.6,69.9,76.4,
"Cc1cn(-c2cc(NC(=O)c3ccc(C)c(Nc4nccc(-c5cccnc5)n4)c3)cc(C(F)(F)F)c2)cn1 [nilotinib] + O=c1cc(-c2cccc3c2Sc2ccccc2S3)oc(N2CCOCC2)c1 [KU55933] (first compound 1 µM, partner dose 5 µM)",83,89.3,90.6,67.1,106,75.9,78.9,86.6,70.3,
"COc1ccc(C2=N[C@@H](c3ccc(Cl)cc3)[C@@H](c3ccc(Cl)cc3)N2C(=O)N2CCNC(=O)C2)c(OC(C)C)c1 [Nutlin-3] + N#Cc1c(O)c2c(-c3ccc(-c4ccccc4O)cc3)csc2[nH]c1=O [A769662] (first compound 0.5 µM, partner dose 10 µM)",89.1,105,113,87.4,98.1,66,94.6,87.6,96.3,
